The results in this text go back to patent US20200339699A1 (Innovent, published 2020).

Changes are numbered by the printed parent chain.

The labels stand for the following.
T1: human BCMA on NCI-H929 cells (human, UniProt Q02223 1-184)
T1 construct: BCMA-positive human multiple myeloma cell line NCI-H929 (ATCC CRL-9068); also called B-cell maturation antigen; CD269
T1 sequence: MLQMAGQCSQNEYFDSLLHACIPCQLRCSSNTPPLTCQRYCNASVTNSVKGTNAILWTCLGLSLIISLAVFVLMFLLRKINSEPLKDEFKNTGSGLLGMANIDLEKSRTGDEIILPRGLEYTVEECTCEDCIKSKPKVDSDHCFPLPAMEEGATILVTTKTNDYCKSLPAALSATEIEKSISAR

T2: human BCMA-His (human, UniProt Q02223 1-54)
T2 construct: Bought antigen (ACRO BIOSYSTEMS, BCA-H522Y); probably only the extracellular domain stood in the assay; also called hBCMA-His; monovalent human BCMA; not shown: His tag
T2 sequence: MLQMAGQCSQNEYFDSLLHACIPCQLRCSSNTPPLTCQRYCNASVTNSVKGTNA

B1: ADI-34850 scFv-hFc (Fc fusion)
chain: EIVMTQSPATLSVSPGERATLSCRASQSVGSNLAWYQQKPGQAPRLLIYGASTRATGIPARFSGSGSGTEFTLTISSLQSEDFAVYYCQQSVNLPITFGGGTKVEIKGSTSGSGKPGSGEGSTKGEVQLVESGGGLVQPGRSLRLSCAASGFTFDDYAMHWVRQAPGKGLEWVSGISWSSGSIGYADSVKGRFTISRDNAKNSLYLQMNSLRAEDTAVYYCAKDSPRRDSFGSIAFDIWGQGTMVTVSSTTTPAPRPPTPAPTIASQPLSLRPEACRPAAGGAVHTRGLDFACD[human IgG1 Fc not printed]
B2: ADI-34846 scFv-hFc (Fc fusion)
chain: DIVLTQSPDSLAVSLGERATINCKSSQSVLYSSNNKNYLAWYQQKPGQPPKLLIYWASTRESGVPDRFSGSGSGTDFTLTISSLQAEDVAVYYCQQYSDLLTFGGGTKVEIKGSTSGSGKPGSGEGSTKGQVQLVQSGAEVKKPGSSVKVSCKASGGTFSNYAISWVRQAPGQGLEWMGGIIPIFGTANYAQKFQGRVTITADESTSTAYMELSSLKSEDTAVYYCARGSGYYSSWLFDIWGQGTMVTVSSTTTPAPRPPTPAPTIASQPLSLRPEACRPAAGGAVHTRGLDFACD[human IgG1 Fc not printed]
B3: ADI-34860 scFv-hFc (Fc fusion)
chain: DIQMTQSPSSLSASVGDRVTITCRASQSISSYLNWYQQKPGKAPKLLIYAASSLQSGVPSRFSGSGSGTDFTLTISSLQPEDFATYYCQQKYDLLTFGGGTKVEIKGSTSGSGKPGSGEGSTKGQLQLQESGPGLVKPSETLSLTCTVSGGSISSSSYYWGWIRQPPGKGLEWIGSISYSGSTYYNPSLKSRVTISVDTSKNQFSLKLSSVTAADTAVYYCARDRGDTILDVWGQGTMVTVSSTTTPAPRPPTPAPTIASQPLSLRPEACRPAAGGAVHTRGLDFACD[human IgG1 Fc not printed]
B4: ADI-34861 scFv-hFc (Fc fusion)
chain: B3 chain with S31R, D93F, L94D, L95I
B5: ADI-34857 scFv-hFc (Fc fusion)
chain: DIQMTQSPSSLSASVGDRVTITCQASQDITNYLNWYQQKPGKAPKLLIYDASNLETGVPSRFSGSGSGTDFTFTISSLQPEDIATYYCQQAFDLITFGGGTKVEIKGSTSGSGKPGSGEGSTKGQVQLVQSGAEVKKPGSSVKVSCKASGGTFSNYAISWVRQAPGQGLEWMGGIIPIFGTANYAQKFQGRVTITADESTSTAYMELSSLRSEDTAVYYCARGRGYYSSWLFDIWGQGTMVTVSSTTTPAPRPPTPAPTIASQPLSLRPEACRPAAGGAVHTRGLDFACD[human IgG1 Fc not printed]
B6: ADI-34832 scFv-hFc (Fc fusion)
chain: DIQMTQSPSSVSASVGDRVTITCRASQGISSWLAWYQQKPGKAPKLLIYAASSLQSGVPSRFSGSGSGTDFTLTISSLQPEDFATYYCQQTLSLPITFGGGTKVEIKGSTSGSGKPGSGEGSTKGQITLKESGPTLVKPTQTLTLTCTFSGFSLSTSGVGVGWIRQPPGKALEWLALIYWNDEKRYSPSLKSRLTITKDTSKNQVVLTMTNMDPVDTAVYYCARDPGEQLQVFDYWGQGTLVTVSSTTTPAPRPPTPAPTIASQPLSLRPEACRPAAGGAVHTRGLDFACD[human IgG1 Fc not printed]
notes: also called ADI-34832 scFv-hc
B7: ADI-34859 scFv-hFc (Fc fusion)
chain: DIQMTQSPSSLSASVGDRVTITCRASQSINSYLNWYQQKPGKAPKLLIYAASSLQSGVPSRFSGSGSGTDFTLTISSLQPEDFATYYCQQKASAPITFGGGTKVEIKGSTSGSGKPGSGEGSTKGQLQLQESGPGLVKPSETLSLTCTVSGGSISSSSYYWGWIRQPPGKGLEWIGSISYSGSTYYNPSLKSRVTISVDTSKNQFSLKLSSVTAADTAVYYCARDRGDTILDVWGQGTMVTVSSTTTPAPRPPTPAPTIASQPLSLRPEACRPAAGGAVHTRGLDFACD[human IgG1 Fc not printed]

The first experiment concerns the target T1, human BCMA on NCI-H929 cells. Nature of the experiment: flow cytometry on NCI-H929 cells, scFv-hFc. The procedure: 1. A human NCI-H929 (ATCC, CRL-9068) cell suspension was taken, adjusted to a cell density of 2×10⁶ cells/mL, and added to a 96-well microplate at 100 μL/well. The cell suspension was centrifuged at 400 G for 5 min and the supernatant was removed. […] 2. […] 3. […] The plate was incubated at 4° C. for 30 min (in the dark). […] 4. Then the resulting solution was centrifuged at 400 G for 5min, and washed twice with PBS, and the cells were resuspended with 100 μL of PBS per well. Flow cytometry was performed on an Accuri C6 system (BD Bioscience) to detect PE positive signals, and MFI was calculated based on C6 software. The EC50 values were calculated using GraphPad software.
As for B1, the EC50 (as a rule, the concentration giving half of the maximal effect) came to 28.7 nM.

Take B2: the concentration for a half-maximal effect (EC50) stood at 816 nM.

Turning to B3, the 50% effective concentration (EC50) came out at 37.3 nM.

Regarding B4, the EC50 stood at 27.4 nM.

Regarding B5, the concentration giving a half-maximal response (EC50) was 17.7 nM.

As to B6, the EC50 amounted to 11.2 nM.

B7 returned a 50% effective concentration (EC50) of 34.6 nM.

The target of another experiment is T2, human BCMA-His. The experiment can be described thus: BLI (ForteBio Octet Red96), scFv-hFc on AHC sensors, human BCMA-His in solution. The procedure:
The kinetic constants of the antibody molecules were determined based on the biofilm layer interferometry (BLI) of a fiber optic biosensor.
The Fortebio instrument model used in the experiment was Octet Red96, and a ForteBio affinity assay was performed according to the existing method (Estep, P et al., High throughput solution Based measurement of antibody-antigen affinity and epitope binning MAbs, 2013.5 (2): p. 270-8). The assay is specifically as follows: [0317] 1. Half an hour before the experiment, an appropriate number of AHC sensors were taken according to the number of samples and soaked in the SD buffer (50 mL PBS+0.1% BSA +0.05% Tween-20). [0318] 2. SD buffer, scFv-hFc antibodies and human BCMA-His antigens (ACRO BIOSYSTEMS, BCA-H522Y), each of 100 μL were added to a 96-well half-area black polystyrene microplate respectively. [0319] 3. The plates were arranged according to the positions of the samples, the positions of the sensors were selected, and the operation procedures were set as: Baseline, Loading ˜1 nm, Baseline, Association, and Dissociation, each running for a time depending on the binding and dissociation rates of the sample, at a rotation speed of 1,000 rpm and a temperature of 30° C. [0320] 4.
In general terms: BLI is a label-free optical method that tracks binding on a fibre tip over time.
In the case of B1, binding was characterised by a dissociation constant (Kd) of 33.1 nM; the off-rate (koff) – broadly, a measure of how fast the partners let go of each other – amounted to 0.00911 s⁻¹; the kon (in general, the second-order rate constant of association) stood at 275000 M⁻¹ s⁻¹.

Turning to B2, the equilibrium dissociation constant (Kd) (in general, the constant that tells how readily two partners part at equilibrium) stood at 11.4 nM; the off-rate (koff) was determined as 0.00146 s⁻¹; the association rate constant (kon) stood at 128000 M⁻¹ s⁻¹.

Molecule B3 gave an equilibrium dissociation constant (Kd) of 8.68 nM, an off-rate (koff) of 0.00147 s⁻¹ and an on-rate (kon) of 169000 M⁻¹ s⁻¹.

B4: the affinity, expressed as Kd, was 22.7 nM; the off-rate (koff) worked out at 0.00331 s⁻¹; the on-rate constant (kon) is 146000 M⁻¹ s⁻¹.

For B5, the Kd came out at 6.44 nM, the koff was determined as 0.00469 s⁻¹ and the association rate constant (kon) came to 729000 M⁻¹ s⁻¹.

In turn, B6 had a Kd of 70.7 nM, a koff of 0.0131 s⁻¹ and a kon of 186000 M⁻¹ s⁻¹.

B7 yielded an equilibrium dissociation constant (Kd) of 39.5 nM, a koff of 0.00788 s⁻¹ and a kon of 200000 M⁻¹ s⁻¹.
